# According to article PMC5892938:
# This is one part of the list. At the low end of the ranking the order means little.
# Target: GST-SBP-SLBP (stem-loop binding protein) (UniProt Q14493)
# Test: targeted RNA Bind-n-Seq;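 also: DESeq read counts versus GST-SBP nonspecific binding control pulldown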
# Conditions: RBNS binding buffer: 25 mM Tris pH 7.5, 150 mM KCl, 3 mM MgCl2, 0.1% Tween, 0.5 mg/mL BSA, 1 mM DTT; 27 nM protein, 750 pM RNA pool; temperature not stated; high values mean tight binding
row,Sequence,binding signal (log2 fold change)
1,GGUCACGUCUCAAUCAACUCUUUUCCCAGGGAAACCCCUGGCAUAUUCAACAGCUCGCAGUCAAG,0.131
2,GGUCACGUCUCAAUCAACUCAGUUCCAGGAGUUUCCUCCUGCAUUCUCAACAGCUCGCAGUCAAG,0.0122
3,GGUCACGUCUCAAUCAACUCAUCCUCAGGAGUUUCCUCCUGUUAUUUCAACAGCUCGCAGUCAAG,0.129
4,GGUCACGUCUCAAUCAACUCUACUUCAGGAGUUUUCUCCUGCAUUCUCAACAGCUCGCAGUCAAG,-0.00921
5,GGUCACGUCUCAAUCAACUCAAUCCCAGGAGUUUCCUCCUGCUAUGUCAACAGCUCGCAGUCAAG,0.286
6,GGUCACGUCUCAAUCAACUCAAUCUCCAGGGAAAGCCCUGGCAAAUUCAACAGCUCGCAGUCAAG,-0.00557
7,GGUCACGUCUCAAUCAACUCAACUUCCAGGGAAAACCCUGGUAUAUUCAACAGCUCGCAGUCAAG,0.208
8,GGUCACGUCUCAAUCAACUCAACUUCAGGAGUUUCCUCCUGCUAUUUCAACAGCUCGCAGUCAAG,0.0371
9,GGUCACGUCUCAAUCAACUCUUUUCCCAGGGAAAGCCCUGGCAUACUCAACAGCUCGCAGUCAAG,-0.244
10,GGUCACGUCUCAAUCAACUCAAUCUCCAGGGAAAGCCCUGGCUUUUUCAACAGCUCGCAGUCAAG,0.095
11,GGUCACGUCUCAAUCAACUCAUUCGCAGGAGUUUUCUCCUGGUAUUUCAACAGCUCGCAGUCAAG,-0.146
12,GGUCACGUCUCAAUCAACUCUUCUUCAGGAGUUUACUCCUGCUAUUUCAACAGCUCGCAGUCAAG,-0.159
13,GGUCACGUCUCAAUCAACUCUCCAGAGGGGGGGAAAACCCCUUUGCCCUCAUAAUCAACAGCUCGCAGUCAAG,-0.503
14,GGUCACGUCUCAAUCAACUCCUAAGAGGGGGGGAAAACCCCUUUACCCUCCAAUUCAACAGCUCGCAGUCAAG,-0.113
15,GGUCACGUCUCAAUCAACUCUUUUUCCAGGGAAAACCCUGGCGUAUUCAACAGCUCGCAGUCAAG,0.352
16,GGUCACGUCUCAAUCAACUCUACUUCCAGGGAAAGCCCUGGCGUUUUCAACAGCUCGCAGUCAAG,-0.109
17,GGUCACGUCUCAAUCAACUCAUAAGAGGGGGGGAAAACCCCUUUACCCUCACCAUCAACAGCUCGCAGUCAAG,0.0285
18,GGUCACGUCUCAAUCAACUCAUCGCCAGGAGUUUUCUCCUGUUUACUCAACAGCUCGCAGUCAAG,-0.0831
19,GGUCACGUCUCAAUCAACUCACCCGAGGGGGGGAAAACCCCUUUACCCUCAUAAUCAACAGCUCGCAGUCAAG,0.227
20,GGUCACGUCUCAAUCAACUCACAGGAGGGGGGGAAAACCCCUUUACCCUCAACAUCAACAGCUCGCAGUCAAG,-0.0703
21,GGUCACGUCUCAAUCAACUCAUUUCCCAGGGAAACCCCUGGUUUAUUCAACAGCUCGCAGUCAAG,0.14
22,GGUCACGUCUCAAUCAACUCUACUCCAGGAGUUUCCUCCUGUUUACUCAACAGCUCGCAGUCAAG,0.0753
23,GGUCACGUCUCAAUCAACUCAAUCCCCAGGGAAAGCCCUGGUUUUUUCAACAGCUCGCAGUCAAG,-0.163
24,GGUCACGUCUCAAUCAACUCAUCUUCAGGAGUUUGCUCCUGCAAUUUCAACAGCUCGCAGUCAAG,0.0446

row,Sequence,binding signal (log2 fold change)
1,GGUCACGUCUCAAUCAACUCAUUCUCCAGGGAAAUCCCUGGUUAACUCAACAGCUCGCAGUCAAG,-0.0271
2,GGUCACGUCUCAAUCAACUCUACUUCAGGAGUUUACUCCUGCUAACUCAACAGCUCGCAGUCAAG,-0.11
3,GGUCACGUCUCAAUCAACUCUAUUUCCAGGGAAAUCCCUGGCGUUUUCAACAGCUCGCAGUCAAG,-0.115
4,GGUCACGUCUCAAUCAACUCAUUCUCAGGAGUUUGCUCCUGUAUAUUCAACAGCUCGCAGUCAAG,0.111
5,GGUCACGUCUCAAUCAACUCAUUCCCAGGAGUUUGCUCCUGUAAUUUCAACAGCUCGCAGUCAAG,-0.203
6,GGUCACGUCUCAAUCAACUCGUCUUCAGGAGUUUUCUCCUGUAUAUUCAACAGCUCGCAGUCAAG,0.0627
7,GGUCACGUCUCAAUCAACUCAAGUCCAGGAGUUUCCUCCUGUUUUCUCAACAGCUCGCAGUCAAG,0.11
8,GGUCACGUCUCAAUCAACUCUACUUCAGGAGUUUACUCCUGCAAUUUCAACAGCUCGCAGUCAAG,0.168
9,GGUCACGUCUCAAUCAACUCAAUUCCAGGAGUUUACUCCUGUUAUCUCAACAGCUCGCAGUCAAG,0.128
10,GGUCACGUCUCAAUCAACUCUAAAGAGGGGGGGAAAACCCCUUUACCCUCACUUUCAACAGCUCGCAGUCAAG,-0.445
11,GGUCACGUCUCAAUCAACUCAUUCCCAGGAGUUUGCUCCUGCAUUCUCAACAGCUCGCAGUCAAG,0.13
12,GGUCACGUCUCAAUCAACUCAACUCCAGGAGUUUACUCCUGCUAAUUCAACAGCUCGCAGUCAAG,0.163
13,GGUCACGUCUCAAUCAACUCAUCGCCCAGGGAAAUCCCUGGUUUAUUCAACAGCUCGCAGUCAAG,0.258
14,GGUCACGUCUCAAUCAACUCAUUCUCAGGAGUUUGCUCCUGCUAUUUCAACAGCUCGCAGUCAAG,-0.00768
15,GGUCACGUCUCAAUCAACUCAAUCGAGGGGGGGAAAACCCCUUUGCCCUCAUCAUCAACAGCUCGCAGUCAAG,-0.263
16,GGUCACGUCUCAAUCAACUCUACGCCAGGAGUUUCCUCCUGUAAAUUCAACAGCUCGCAGUCAAG,-0.125
17,GGUCACGUCUCAAUCAACUCUUCUUCAGGAGUUUACUCCUGUAUUCUCAACAGCUCGCAGUCAAG,0.102
18,GGUCACGUCUCAAUCAACUCCUUCGAGGGGGGGAAAACCCCUUUACCCUCAAUUUCAACAGCUCGCAGUCAAG,0.0185
19,GGUCACGUCUCAAUCAACUCUUUCUCAGGAGUUUCCUCCUGUUAACUCAACAGCUCGCAGUCAAG,0.06
20,GGUCACGUCUCAAUCAACUCAUCUCCCAGGGAAAGCCCUGGCAUUCUCAACAGCUCGCAGUCAAG,-0.346
21,GGUCACGUCUCAAUCAACUCAAUCCCAGGAGUUUUCUCCUGUAUAGUCAACAGCUCGCAGUCAAG,0.0769
22,GGUCACGUCUCAAUCAACUCUAUUCCCAGGGAAAGCCCUGGUUUUCUCAACAGCUCGCAGUCAAG,-0.149
23,GGUCACGUCUCAAUCAACUCCUACGAGGGGGGGAAAACCCCUUUACCCUCUUUUUCAACAGCUCGCAGUCAAG,-0.135
